Source: PubChem BioAssay (Tox21)
“And” between values parts separate entries of the source, which are not always exact repeats. Equal values may be shown once. The inconclusive results got no clear call from the source; some entries with a clear call stand among them for comparison. For some assays here: A potency beside an inconclusive call is a rough fit, not a confirmed value. Where a structure was tested more than once in an assay, its records may differ in their call. The source made the active and inactive calls. Unless noted, the call rests on the fitted dose curve; in most records, active means well fitted curve in the direction sought with a large enough effect in the repeat runs; inconclusive means weak or mixed curves; inactive means no such curve, though single readings can be large; an effect the other way counts as inactive or inconclusive.

Key:
[1] = target: Aryl hydrocarbon receptor (Homo sapiens) (UniProt P35869); test: qHTS assay to identify small molecule that activate the aryl hydrocarbon receptor (AhR) signaling pathway (AID 743085); further: nearly all actives have a fitted effect of over 15% in size;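 on activation: HG2L7.5c1 human HepG2 liver cells with stably integrated DRE-driven firefly reporter; on the % scale 0 is the no-effect control and ±100 the full control effect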
Summary of the method: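 Steps: seed HepG2-AhR-luc cells; allow 5 h at 37C; pin-transfer test compound or vehicle; incubate 24 h at 37C; add viability dye (30 min, 37C) and read fluorescence; add luciferase substrate (30 min, RT) and read luminescence.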

[2] = qHTS assay to identify small molecule that activate the aryl hydrocarbon receptor (AhR) signaling pathway - cell viability counter screen (AID 743086); further: nearly all actives have a fitted effect of over 45% in size
Summary of the method: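 Cytotoxicity counter screen: CellTiter-Fluor signal (30 min, 37 C) in 4000 HepG2 cells/well carrying the DRE-luciferase reporter, following 24 h compound exposure at 37 C.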

[3] = target: Peroxisome proliferator-activated receptor gamma (Homo sapiens) (UniProt P37231); test: qHTS assay to identify small molecule agonists of the peroxisome proliferator-activated receptor gamma (PPARg) signaling pathway (AID 743094; active means well fitted activation curve with a large enough effect in the signal ratio in the repeat runs, not every such curve was filed as active; inconclusive means weak or mixed curves, or effect the other way; inactive means no such curve, though single readings can be large or run the other way; the % refers to the signal ratio); conditions: HEK293H PPARg-UAS-bla, beta-lactamase FRET ratio, 17 h; activation: at 57 µM (top of the series) unless noted
Summary of the method: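 HEK293H PPARg-bla cells, 5 h settle at 37C/5% CO2; compound (DMSO) 17 h, 37C; B/G FRET substrate 1 h RT; fluorescence intensity read-out. qHTS format.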

[4] = target: Peroxisome proliferator-activated receptor gamma (Homo sapiens) (UniProt P37231); test: qHTS assay to identify small molecule antagonists of the peroxisome proliferator-activated receptor gamma (PPARg) signaling pathway (AID 743191; calls by dose curve; further: nearly all actives have a fitted effect of over 30% in size; on ratio activity, negative = inhibition: on the % scale 0 is the no-effect control and ±100 the full control effect); conditions: HEK293H PPARg-UAS-bla, beta-lactamase ratio, antagonist, 17 h
Summary of the method: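 Beta-lactamase reporter under UAS control in HEK293H PPARg-bla cells; compound treatment 17 h at 37C. Read-out: fluorescence intensity after 1 h room-temperature incubation with LiveBLAzer B/G FRET substrate.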

[5] = qHTS assay for small molecule agonists of the antioxidant response element (ARE) signaling pathway (AID 743202; active means well fitted activation curve with a large enough effect in the signal ratio in the repeat runs, not every such curve was filed as active; inconclusive means weak or mixed curves, or effect the other way; inactive means no such curve, though single readings can be large or run the other way; the % refers to the signal ratio; on activation: on the % scale 0 is the no-effect control and ±100 the full control effect); conditions: HepG2 ARE-bla reporter, beta-lactamase FRET, 16 h; activation: at 73.3 µM (top of the series) unless noted
Summary of the method: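 After 16 hours of compound treatment at 37 C, HepG2 cells with a stably integrated ARE-driven beta-lactamase reporter were loaded 2 hours at room temperature with LiveBLAzer B/G FRET substrate and fluorescence intensity measured.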

[6] = qHTS assay to identify small molecule agonists of the peroxisome proliferator-activated receptor delta (PPARd) signaling pathway - cell viability counter screen (AID 743211); conditions: PPARd-bla HEK293H viability, CellTiter-Glo luminescence, 17 h; activity change, negative = cytotoxicity: at 62.6 µM (top of the series); further: nearly all actives have a fitted effect of over 55% in size
Summary of the method: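 Viability of GeneBLAzer PPARd UAS-bla HEK293H cells was assessed after 17 h compound incubation at 37C, using CellTiter-Glo reagent added after the reporter read and luminescence recorded 30 min later.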

[7] = qHTS assay to identify small molecule antagonists of the peroxisome proliferator-activated receptor gamma (PPARg) signaling pathway - cell viability counter screen (AID 743194); conditions: PPARg-bla HEK293H viability, CellTiter-Glo luminescence, 17 h, co-treated with 50 nM rosiglitazone; activity change, negative = cytotoxicity: at 62.6 µM (top of the series) unless noted; further: nearly all actives have a fitted effect of over 55% in size
Summary of the method: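 Viability was measured as CellTiter-Glo luminescence in GeneBLAzer PPARg UAS-bla HEK293H cells. These cells had been exposed 17 h at 37 C to compounds together with rosiglitazone at 50 nM final, with the beta-lactamase readout taken in the same wells.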

[8] = qHTS assay for small molecule activators of the heat shock response signaling pathway - cell viability counter screen (AID 743209); conditions: HSE-bla HeLa viability, CellTiter-Glo luminescence, 5 h; activity change, negative = cytotoxicity: at 62.6 µM (top of the series) unless noted; further: nearly all actives have a fitted effect of over 50% in size; on activity change, negative = cytotoxicity: on the % scale 0 is the no-effect control and ±100 the full control effect
Summary of the method: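 HSE-bla HeLa; 1500 cells/well; overnight 37 C, 5% CO2; compound 5 h 37 C; LiveBLAzer B/G substrate 2.5 h RT; CellTiter-Glo 30 min RT; luminescence.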

[9] = qHTS assay for small molecule activators of the heat shock response signaling pathway (AID 743210; active means well fitted activation curve with a large enough effect in the signal ratio in the repeat runs, with a control signal flat, not every such curve was filed as active; inconclusive means weak or mixed curves; the % refers to the signal ratio); conditions: HeLa HSE-bla reporter, beta-lactamase ratio, 5 h; activation: at 62.6 µM (top of the series) unless noted
Summary of the method: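 Compound exposure lasted 5 h at 37 C in HeLa cells carrying a heat-shock-element-driven beta-lactamase reporter. Read-out: fluorescence intensity after 2.5 h room-temperature loading with LiveBLAzer B/G FRET substrate.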

[10] = ratio activity, negative = inhibition: at 62.6 µM (top of the series) unless noted
Potency means the concentration at half of the fitted maximal effect; tags describe the fitted curve by direction and shape or compound fluorescence and quenching.

Chain of UniProt P35869 (P35869 whole entry, looked up): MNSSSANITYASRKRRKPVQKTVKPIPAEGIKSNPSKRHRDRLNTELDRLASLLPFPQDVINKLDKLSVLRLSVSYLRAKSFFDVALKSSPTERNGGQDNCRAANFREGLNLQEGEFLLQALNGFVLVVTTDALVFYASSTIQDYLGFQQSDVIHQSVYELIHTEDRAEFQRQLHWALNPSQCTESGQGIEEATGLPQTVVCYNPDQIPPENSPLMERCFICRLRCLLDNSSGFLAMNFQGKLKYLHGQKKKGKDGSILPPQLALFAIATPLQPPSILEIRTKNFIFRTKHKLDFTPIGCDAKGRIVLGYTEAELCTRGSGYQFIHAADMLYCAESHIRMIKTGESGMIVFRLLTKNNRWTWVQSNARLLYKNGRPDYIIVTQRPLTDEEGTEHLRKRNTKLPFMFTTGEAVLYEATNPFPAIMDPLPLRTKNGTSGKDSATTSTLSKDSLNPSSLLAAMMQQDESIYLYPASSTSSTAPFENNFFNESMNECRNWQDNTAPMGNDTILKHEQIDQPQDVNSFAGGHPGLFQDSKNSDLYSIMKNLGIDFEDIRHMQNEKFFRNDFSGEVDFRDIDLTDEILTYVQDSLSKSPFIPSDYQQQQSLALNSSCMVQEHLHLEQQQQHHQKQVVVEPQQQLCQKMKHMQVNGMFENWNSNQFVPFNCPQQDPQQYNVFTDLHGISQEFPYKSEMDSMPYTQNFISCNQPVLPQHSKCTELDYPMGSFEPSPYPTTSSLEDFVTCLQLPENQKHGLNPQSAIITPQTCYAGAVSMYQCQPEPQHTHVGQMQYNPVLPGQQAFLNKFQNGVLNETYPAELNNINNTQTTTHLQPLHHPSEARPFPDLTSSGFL
Chain of UniProt P37231 (P37231 whole entry, looked up): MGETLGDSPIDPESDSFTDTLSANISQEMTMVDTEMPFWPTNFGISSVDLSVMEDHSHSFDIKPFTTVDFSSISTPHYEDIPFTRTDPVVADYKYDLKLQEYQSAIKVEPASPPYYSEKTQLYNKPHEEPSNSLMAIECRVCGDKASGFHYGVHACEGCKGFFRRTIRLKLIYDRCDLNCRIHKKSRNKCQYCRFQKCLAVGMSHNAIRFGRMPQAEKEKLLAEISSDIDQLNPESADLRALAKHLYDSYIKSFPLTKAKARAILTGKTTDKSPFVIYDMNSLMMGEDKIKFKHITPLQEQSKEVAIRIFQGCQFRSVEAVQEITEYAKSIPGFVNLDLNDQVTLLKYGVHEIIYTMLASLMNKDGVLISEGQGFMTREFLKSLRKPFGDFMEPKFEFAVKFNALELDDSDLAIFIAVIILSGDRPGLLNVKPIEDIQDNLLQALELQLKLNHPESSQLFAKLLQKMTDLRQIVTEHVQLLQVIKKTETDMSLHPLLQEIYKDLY

## Cc1ccc([N+](=O)[O-])cc1S(=O)(=O)O
[1]
  Potency: inactive
[2]
  Potency: inactive

## CN1CCN(Cc2cc(-c3ccc4[nH]c(=O)oc4c3)co2)[C@@H](c2ccc(F)cc2)C1
[1]
  Potency: inactive
[2]
  Potency: active: 52.4 µM
[3]
  Potency: inconclusive: 29.7 µM [rising, partial curve, poor fit]
[4]; [10]
  Potency: inconclusive: 29.7 µM [inhibitor, partial curve]
[5]
  Potency: inconclusive: 0.416 µM [rising, full curve, poor fit]
[6]
  Potency: inconclusive: 21.1 µM [cytotoxic, partial curve, poor fit]

## Nc1cc(Cl)c(N)c(Cl)c1
[1]
  Potency: active: 27.1 µM and active: 21.7 µM

## CN(C)c1ccc(O)c2c1C[C@H]1C[C@H]3[C@H](N(C)C)C(=O)C(C(N)=O)=C(O)[C@@]3(O)C(=O)C1=C2O
[1]
  Potency: active: 7.7 µM
[2]
  Potency: inconclusive: 23.7 µM [falling, partial curve, poor fit] and inconclusive: 30.6 µM [falling, partial curve, poor fit]
[7]
  Potency: inconclusive: 5.96 µM [cytotoxic, full curve, poor fit]
[8]
  Potency: inconclusive: 13.3 µM [cytotoxic, single point]
[9]
  Potency: inconclusive: 11.9 µM [falling, partial curve]
[6]
  Potency: inconclusive: 13.3 µM [cytotoxic, single point]

## C=CCOCC(O)CCl (stereo not drawn)
[1]
  Potency: inactive
[4]; [10]
  Potency: inactive
[5]
  activation: inconclusive: 17.3%

## O=S1(=O)OC(c2ccc(O)cc2)(c2ccc(O)cc2)c2ccccc21
[1]
  Potency: inactive
[4]; at 62.6 µM (top of the series)
  ratio activity, negative = inhibition: inactive: 3.8% and inactive: -0.143%
[4]; [10]
  ratio activity, negative = inhibition: inconclusive: 29.9%
[5]
  activation: inconclusive: 2.53%
[8]
  Potency: inactive and inconclusive: 8.41 µM [cytotoxic, partial curve, poor fit]
